Binding signal data for 40 sequences are collected here from article PMC12820563, “FoxP3 forms a head-to-head dimer in vivo and stabilizes its multimerization on adjacent microsatellites”.

The list shows a part of the results.

The assay concerns the target T1, MBP-FoxP1dN (Mus musculus, UniProt P58462 326-579).
T1 sequence: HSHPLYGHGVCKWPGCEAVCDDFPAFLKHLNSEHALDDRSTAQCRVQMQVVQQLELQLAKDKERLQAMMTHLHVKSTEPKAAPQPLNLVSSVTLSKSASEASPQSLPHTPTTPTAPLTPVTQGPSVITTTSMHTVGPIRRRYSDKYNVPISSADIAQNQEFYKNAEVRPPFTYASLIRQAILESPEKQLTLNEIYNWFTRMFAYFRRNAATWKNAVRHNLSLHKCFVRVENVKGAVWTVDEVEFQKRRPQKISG
The assay is described as follows: PD-seq (MBP pull-down with sequencing); 20 mM Tris-HCl pH 7.5, 100 mM NaCl, 1.5 mM MgCl2, 0.4 uM protein, 0.1 uM dsDNA library, 30 min, room temperature, amylose pull-down; high values mean tight binding. The settings on record: protein: recombinant; tags: His6-MBP; chain copies: 2; dsDNA, one strand shown. In outline:
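Binding is the reads-per-million enrichment of pull-down relative to input, pooled across replicates. For this, 0.4 µM His6-MBP-tagged mouse FoxP3 or FoxP1 fragment lacking the N-terminus, made in E. coli, was incubated with 0.1 µM Klenow-filled double-stranded degenerate DNA library for 30 min at room temperature in Tris pH 7.5 buffer with NaCl and MgCl2. Complexes bound to amylose resin were washed three times before proteinase K released the DNA for PCR barcoding and Illumina sequencing.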
For “GATGATTGTTCTCCCAGCTGATGAATTGTGGTAGTCGAGTAAACAAATTTTCCTAATCTTTCTGTTCAAGCGCCATCTAC”, the binding signal was 1.03 RPM ratio (pull-down/input).
With “GATGATTGTTCTCCCAGCTGATGAATTTTGTTATTCGAGTAAACAAATTTTCCTAATCTTTCTGTTCAAGCGCCATCTAC”, the binding signal is 2.37 RPM ratio (pull-down/input).
For “GATGATTGTTCTCCCAGCTGATGAATTGGTTCAATCGAGTAAACAAATTTTCCTAATCTTTCTGTTCAAGCGCCATCTAC” the value was 1.04 RPM ratio (pull-down/input); for “GATGATTGTTCTCCCAGCTGATGAATTAGGACAGTCGAGTAAACAAATTTTCCTAATCTTTCTGTTCAAGCGCCATCTAC”, 0.965 RPM ratio (pull-down/input); for “GATGATTGTTCTCCCAGCTGATGAATTTGGAAACTCGAGTAAACAAATTTTCCTAATCTTTCTGTTCAAGCGCCATCTAC”, 0.898 RPM ratio (pull-down/input).
The result for “GATGATTGTTCTCCCAGCTGATGAATTTCCCGTCTCGAGTAAACAAATTTTCCTAATCTTTCTGTTCAAGCGCCATCTAC” reads 0.813 RPM ratio (pull-down/input).
The result for “GATGATTGTTCTCCCAGCTGATGAATTATGTTGATCGAGTAAACAAATTTTCCTAATCTTTCTGTTCAAGCGCCATCTAC” reads 2.81 RPM ratio (pull-down/input).
As for “GATGATTGTTCTCCCAGCTGATGAATTCCAGCGATCGAGTAAACAAATTTTCCTAATCTTTCTGTTCAAGCGCCATCTAC”, the binding signal is 0.786 RPM ratio (pull-down/input).
Turning to “GATGATTGTTCTCCCAGCTGATGAATTGACCCCCTCGAGTAAACAAATTTTCCTAATCTTTCTGTTCAAGCGCCATCTAC”, the binding signal was 0.848 RPM ratio (pull-down/input).
The result for “GATGATTGTTCTCCCAGCTGATGAATTGCCACCATCGAGTAAACAAATTTTCCTAATCTTTCTGTTCAAGCGCCATCTAC” reads 1.14 RPM ratio (pull-down/input); that for “GATGATTGTTCTCCCAGCTGATGAATTTTTAGCATCGAGTAAACAAATTTTCCTAATCTTTCTGTTCAAGCGCCATCTAC”, 1.3 RPM ratio (pull-down/input).
For the sequence “GATGATTGTTCTCCCAGCTGATGAATTTCAGATTTCGAGTAAACAAATTTTCCTAATCTTTCTGTTCAAGCGCCATCTAC”, the binding signal is 0.843 RPM ratio (pull-down/input).
For “GATGATTGTTCTCCCAGCTGATGAATTTTTGTTTTCGAGTAAACAAATTTTCCTAATCTTTCTGTTCAAGCGCCATCTAC”, the binding signal is 2.71 RPM ratio (pull-down/input).
In the case of “GATGATTGTTCTCCCAGCTGATGAATTGAGAGCGTCGAGTAAACAAATTTTCCTAATCTTTCTGTTCAAGCGCCATCTAC”, the binding signal was 0.847 RPM ratio (pull-down/input).
The result for “GATGATTGTTCTCCCAGCTGATGAATTTCGCCGGTCGAGTAAACAAATTTTCCTAATCTTTCTGTTCAAGCGCCATCTAC” reads 0.75 RPM ratio (pull-down/input); that for “GATGATTGTTCTCCCAGCTGATGAATTCTATACCTCGAGTAAACAAATTTTCCTAATCTTTCTGTTCAAGCGCCATCTAC”, 0.916 RPM ratio (pull-down/input); that for “GATGATTGTTCTCCCAGCTGATGAATTCCGTTTGTCGAGTAAACAAATTTTCCTAATCTTTCTGTTCAAGCGCCATCTAC”, 1.06 RPM ratio (pull-down/input).
For “GATGATTGTTCTCCCAGCTGATGAATTGTCAGATTCGAGTAAACAAATTTTCCTAATCTTTCTGTTCAAGCGCCATCTAC” the value was 0.966 RPM ratio (pull-down/input); for “GATGATTGTTCTCCCAGCTGATGAATTTCGTGTATCGAGTAAACAAATTTTCCTAATCTTTCTGTTCAAGCGCCATCTAC”, 1.15 RPM ratio (pull-down/input); for “GATGATTGTTCTCCCAGCTGATGAATTCCCTCACTCGAGTAAACAAATTTTCCTAATCTTTCTGTTCAAGCGCCATCTAC”, 0.853 RPM ratio (pull-down/input).
The result for “GATGATTGTTCTCCCAGCTGATGAATTTGCAGTCTCGAGTAAACAAATTTTCCTAATCTTTCTGTTCAAGCGCCATCTAC” reads 0.885 RPM ratio (pull-down/input).
Turning to “GATGATTGTTCTCCCAGCTGATGAATTTTGGCGATCGAGTAAACAAATTTTCCTAATCTTTCTGTTCAAGCGCCATCTAC”, the binding signal is 0.955 RPM ratio (pull-down/input).
The result for “GATGATTGTTCTCCCAGCTGATGAATTGCTCTTATCGAGTAAACAAATTTTCCTAATCTTTCTGTTCAAGCGCCATCTAC” reads 1.17 RPM ratio (pull-down/input); that for “GATGATTGTTCTCCCAGCTGATGAATTTTACACCTCGAGTAAACAAATTTTCCTAATCTTTCTGTTCAAGCGCCATCTAC”, 0.864 RPM ratio (pull-down/input).
The result for “GATGATTGTTCTCCCAGCTGATGAATTCCATTAGTCGAGTAAACAAATTTTCCTAATCTTTCTGTTCAAGCGCCATCTAC” reads 0.857 RPM ratio (pull-down/input); that for “GATGATTGTTCTCCCAGCTGATGAATTCTCTTGATCGAGTAAACAAATTTTCCTAATCTTTCTGTTCAAGCGCCATCTAC”, 0.905 RPM ratio (pull-down/input).
For “GATGATTGTTCTCCCAGCTGATGAATTCATGTCATCGAGTAAACAAATTTTCCTAATCTTTCTGTTCAAGCGCCATCTAC” the value was 1.3 RPM ratio (pull-down/input); for “GATGATTGTTCTCCCAGCTGATGAATTCGCCACCTCGAGTAAACAAATTTTCCTAATCTTTCTGTTCAAGCGCCATCTAC”, 0.846 RPM ratio (pull-down/input).
In the case of “GATGATTGTTCTCCCAGCTGATGAATTCACTGTGTCGAGTAAACAAATTTTCCTAATCTTTCTGTTCAAGCGCCATCTAC”, the binding signal is 0.907 RPM ratio (pull-down/input).
For the sequence “GATGATTGTTCTCCCAGCTGATGAATTACTTTACTCGAGTAAACAAATTTTCCTAATCTTTCTGTTCAAGCGCCATCTAC”, the binding signal is 1.04 RPM ratio (pull-down/input).
For the sequence “GATGATTGTTCTCCCAGCTGATGAATTACCTTCGTCGAGTAAACAAATTTTCCTAATCTTTCTGTTCAAGCGCCATCTAC”, the binding signal was 0.952 RPM ratio (pull-down/input).
The result for “GATGATTGTTCTCCCAGCTGATGAATTTATGCAATCGAGTAAACAAATTTTCCTAATCTTTCTGTTCAAGCGCCATCTAC” reads 1.56 RPM ratio (pull-down/input); that for “GATGATTGTTCTCCCAGCTGATGAATTAAAAGCTTCGAGTAAACAAATTTTCCTAATCTTTCTGTTCAAGCGCCATCTAC”, 0.91 RPM ratio (pull-down/input).
On to “GATGATTGTTCTCCCAGCTGATGAATTGTTGTGGTCGAGTAAACAAATTTTCCTAATCTTTCTGTTCAAGCGCCATCTAC”, for which the binding signal is 2.1 RPM ratio (pull-down/input).
Regarding “GATGATTGTTCTCCCAGCTGATGAATTAGAACGTTCGAGTAAACAAATTTTCCTAATCTTTCTGTTCAAGCGCCATCTAC”, the binding signal is 0.917 RPM ratio (pull-down/input).
Consider “GATGATTGTTCTCCCAGCTGATGAATTGCCGGCATCGAGTAAACAAATTTTCCTAATCTTTCTGTTCAAGCGCCATCTAC”, for which the binding signal is 1.12 RPM ratio (pull-down/input).
For “GATGATTGTTCTCCCAGCTGATGAATTAATAGAGTCGAGTAAACAAATTTTCCTAATCTTTCTGTTCAAGCGCCATCTAC”, the binding signal is 0.852 RPM ratio (pull-down/input).
On to “GATGATTGTTCTCCCAGCTGATGAATTGCTGATTTCGAGTAAACAAATTTTCCTAATCTTTCTGTTCAAGCGCCATCTAC”, for which the binding signal is 1.31 RPM ratio (pull-down/input).
For “GATGATTGTTCTCCCAGCTGATGAATTGTATCGGTCGAGTAAACAAATTTTCCTAATCTTTCTGTTCAAGCGCCATCTAC” the value was 1.02 RPM ratio (pull-down/input); for “GATGATTGTTCTCCCAGCTGATGAATTTTCACTGTCGAGTAAACAAATTTTCCTAATCTTTCTGTTCAAGCGCCATCTAC”, 0.909 RPM ratio (pull-down/input).
